Experimental data reported in the supplement of paper PMC12423691.
Some of the results follow. Binding of human transcription factors and regulators to the viral nucleoprotein by AlphaScreen, crude cell-free proteins, amounts not normalised, one pass. Fold of the Venus control; higher = more signal. No active / inactive call. Single-pass screen; sequences are the whole Swiss-Prot entries looked up by name.

B1: HOMEZ, Q8IX15 (protein)
chain: MVRGWEPPPGLDCAISEGHKSEGTMPPNKEASGLSSSPAGLICLPPISEELQLVWTQAAQTSELDSNEHLLKTFSYFPYPSLADIALLCLRYGLQMEKVKTWFMAQRLRCGISWSSEEIEETRARVVYRRDQLHFKSLLSFTHHAGRPPEEVPPPPVPAPEQVGIGIGPPTLSKPTQTKGLKVEPEEPSQMPPLPQSHQKLKESLMTPGSGAFPYQSDFWQHLQSSGLSKEQAGRGPNQSHGIGTASWNHSTTVPQPQARDKPPPIALIASSCKEESASSVTPSSSSTSSSFQVLANGATAASKPLQPLGCVPQSVSPSEQALPPHLEPAWPQGLRHNSVPGRVGPTEYLSPDMQRQRKTKRKTKEQLAILKSFFLQCQWARREDYQKLEQITGLPRPEIIQWFGDTRYALKHGQLKWFRDNAVPGAPSFQDPAIPTPPPSTRSLNERAETPPLPIPPPPPDIQPLERYWAAHQQLRETDIPQLSQASRLSTQQVLDWFDSRLPQPAEVVVCLDEEEEEEEEELPEDDEEEEEEEEEDDDDDDDDVIIQD
B2: GAS7, O60861 (protein)
chain: MSGARCRTLYPFSGERHGQGLRFAAGELITLLQVPDGGWWEGEKEDGLRGWFPASYVQLLEKPGMVPPPPGEESQTVILPPGWQSYLSPQGRRYYVNTTTNETTWERPSSSPGIPASPGSHRSSLPPTVNGYHASGTPAHPPETAHMSVRKSTGDSQNLGSSSPSKKQSKENTITINCVTFPHPDTMPEQQLLKPTEWSYCDYFWADKKDPQGNGTVAGFELLLQKQLKGKQMQKEMSEFIRERIKIEEDYAKNLAKLSQNSLASQEEGSLGEAWAQVKKSLADEAEVHLKFSAKLHSEVEKPLMNFRENFKKDMKKCDHHIADLRKQLASRYASVEKARKALTERQRDLEMKTQQLEIKLSNKTEEDIKKARRKSTQAGDDLMRCVDLYNQAQSKWFEEMVTTTLELERLEVERVEMIRQHLCQYTQLRHETDMFNQSTVEPVDQLLRKVDPAKDRELWVREHKTGNIRPVDMEI
B3: ETV7, Q9Y603 (protein)
chain: MQEGELAISPISPVAAMPPLGTHVQARCEAQINLLGEGGICKLPGRLRIQPALWSREDVLHWLRWAEQEYSLPCTAEHGFEMNGRALCILTKDDFRHRAPSSGDVLYELLQYIKTQRRALVCGPFFGGIFRLKTPTQHSPVPPEEVTGPSQMDTRRGHLLQPPDPGLTSNFGHLDDPGLARWTPGKEESLNLCHCAELGCRTQGVCSFPAMPQAPIDGRIADCRLLWDYVYQLLLDTRYEPYIKWEDKDAKIFRVVDPNGLARLWGNHKNRVNMTYEKMSRALRHYYKLNIIKKEPGQKLLFRFLKTPGKMVQDKHSHLEPLESQEQDRIEFKDKRPEISP

Molecular target: nucleoprotein N of Crimean-Congo hemorrhagic fever virus
Assay: AlphaScreen luminescence signal relative to Venus negative control (fold); higher = stronger binding to CCHFV N
Procedure: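 AlphaScreen binding of cell-free made, FLAG-GST-tagged human transcription factors and regulators (crude translation products) to biotinylated N protein; signal as fold of the FLAG-GST-Venus control. One pass.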

Binder | AlphaScreen luminescence signal
B1 | 2.05
B2 | 2.65
B3 | 3.3
